In all, about 320,000 compounds went through this assay and about 9,100 (2.8%) were called active. The shares of active, inactive and inconclusive entries below differ from those in the screen. Calls follow the shape of the dose curve; as a rule, active = well fitted activation curve with a large enough effect; inconclusive = small, poorly fitted or top-dose-only effect; inactive = no such curve, though single readings can be large or run the other way. Potencies of inconclusive entries are doubtful fits and often do not repeat.
Experiment: qHTS Assay for Rab9 Promoter Activators; also: nearly all actives have a fitted effect of over 60% in size; as to activation, negative = inhibition: % of control where 0% means no effect
Settings: Huh7 Rab9 promoter-luciferase reporter, luminescence, 24 h; series mostly up to 9.22 µM; activation, negative = inhibition: at the top concentration
Description: NIH Chemical Genomics Center [NCGC] NIH Molecular Libraries Probe Production centers Network [MLPCN] MLPCN Grant: MH089537-01 Assay Submitter (PI): Yiannis A. Ioannou NCGC Assay Overview: Niemann Pick Type C (NPC) is a rare neurodegenerative lipidosis that is characterized by lipid storage in the endosomal/lysosomal system. Treatment modalities for this devastating disease are currently non-existent due to the severe obstacles associated with accessing the central nervous system with proteins or genes (Ioannou, 2000). We have developed a new paradigm, termed "Orphan Receptor Bypass Therapy" (ORByT), to address these disorders. This paradigm posits the existence of endogenous "suppressor" proteins whose expression can dramatically improve LSD pathogenesis. The goal is the identification/discovery of small chemical compounds that can modulate the expression of these proteins and provide a new treatment modality for these devastating disorders. One such protein whose overexpression reverses aspects of the NPC phenotype is Rab9. We have developed and optimized a cell based luciferase reporter assay in 1536 well format for the identification of up-regulators of the Rab9 promoter.
The Rab9 promoter is cloned in front of the luciferase reporter gene, therefore […] promoter activation results in luciferase expression. Frozen stock of the Rab9 promoter transfected Huh7 cells were obtained from the laboratory of Dr. Yiannis Ioannou (The Mount Sinai School of Medicine, New York, NY). Cells were propagated and maintained at NCGC in medium containing RPMI-1640 supplemented with 10% FBS, 2mM L-glutamine, and 50ug/ml penicillin/streptomycin. Cells were harvested in and plated for assays in OP-MEM I reduced-serum medium supplemented with 10% FBS. The Amplite luciferase reporter gene assay kit was purchased from ABD Bioquest and prepared/stored according to manufacturers recommendations. qHTS Assay Setup: 1.Dispensed 5ul of Huh7 cells stably expressing Rab9-luciferase at a density of 1500 cells per well 1536-well plates. 2.Incubate cells at 37C, 5% CO2, and 95% humidity for 2 hours. 3.Transferred 23nl per well of compound in DMSO solution. 4.Incubated at 37C, 5% CO2, and 95% humidity for 24 hours. 5.Dispensed 3ul per well of Amplite reagent(ABD Bioquest) per well. 6.Incubate at ambient for 10 minutes. 7.Read using the luminescence protocol on the ViewLux plate reader (Perkin Elmer).
Potency is read from the fitted curve at half-maximal effect; tags tell the direction and shape of the fitted curve.

Potency, inconclusive:
COc1ccc(-c2nc3cc([N+](=O)[O-])ccc3o2)cc1OC 3.16 µM [activator, partial curve], C(#Cc1ccc2c(c1)COc1c3ccccc3nn1-2)c1ccccc1 4.47 µM [activator, single point], OCc1nc2ccccc2n1CCCOc1ccccc1 1.41 µM [activator, partial curve], CCOC(=O)c1sc(NC(=O)Nc2cccc(Cl)c2)cc1C 1.26 µM [activator, partial curve], COc1cccc(C(=O)Nc2ccc(F)cc2F)c1 3.55 µM [activator, single point], O=C(NC(C(=O)N/N=C/c1ccccc1)c1n[nH]c(=O)c2ccccc12)c1ccccc1 (centres undefined) 6.31 µM [activator, partial curve, poor fit], NC(=O)CSc1nnc(NC(=O)c2cccc(S(=O)(=O)N3CCCCC3)c2)s1 5.62 µM [activator, single point], Cc1ccc(OCc2nnc(N)s2)cc1C 6.31 µM [activator, single point], CCOCC(=O)Nc1c(C(=O)Nc2ccccc2OC)oc2ccccc12 4.47 µM [activator, partial curve], O=C(CCN1C(=O)/C(=C\C=C\c2ccccc2)SC1=S)Nc1cccc(C(=O)O)c1 2.51 µM [activator, partial curve], O=C(COC(=O)c1ccccc1NCCO)NCCC1=CCCCC1 3.16 µM [activator, single point], Cn1nc(C(=O)NC2CCCCC2)c2c1-c1ccccc1SC2 6.31 µM [activator, single point], O=C(Cn1cc(C(F)(F)F)ccc1=O)NCc1ccc(F)cc1 2.51 µM [activator, partial curve], COc1cc(/C=N/Nc2cccc3cccnc23)cc(OC)c1O 5.62 µM [activator, single point], Nc1ccc(C(=O)Nc2cccc(N)c2)cc1 5.01 µM [activator, partial curve], Cc1ccc(Nc2nc3ccccc3n3nnnc23)cc1 1.41 µM [activator, partial curve], O=C(N/N=C\c1ccc(F)cc1)c1ccc(F)cc1 1.58 µM [activator, partial curve], N#Cc1c(NC(=O)CCCC(=O)O)sc2c1CCCCC2 0.631 µM [activator, full curve], Cc1cccc2nc3c(nc12)-c1ccccc1C3=O 3.98 µM [activator, partial curve], COC(=O)c1ccc(COc2cc(O)c3c(c2)OC(C)(C)CC3=O)cc1 3.55 µM [activator, single point], CN(C)S(=O)(=O)c1cccc(C(=O)Nc2cc(Cl)ccc2O)c1 3.16 µM [activator, partial curve], O=[N+]([O-])c1ccc(Oc2ccc(C(F)(F)F)cn2)cc1 1.26 µM [activator, single point], COc1cccc(CCNC(=O)c2ccc(C#N)cc2)c1 3.16 µM [activator, partial curve], COc1ccc(/C=C/C(=O)c2ccc(O)cc2)cc1 3.98 µM [activator, single point], Cc1nc2ccccc2c(=O)n1/N=C/c1ccccc1Cl 3.16 µM [activator, single point], C/C(=N\NC(=O)c1cc(Br)ccc1O)c1ccccn1 0.562 µM [activator, partial curve], Cc1ccccc1/C=N/Nc1ncnc2nc[nH]c12 2.51 µM [activator, partial curve], Nc1nonc1-c1noc(CCCN2C(=O)c3ccccc3C2=O)n1 2 µM [activator, partial curve], Cc1ccc(NC(=O)CSC2=C(C#N)C(c3ccco3)CC(=O)N2)cc1 (centres undefined) 3.16 µM [activator, single point], Cc1ccc(CONC(=O)c2ccccc2)cc1 3.55 µM [activator, single point], O=C(CSc1nnc(NC(=O)c2ccccc2F)s1)NCC1CCCO1 (centres undefined) 3.98 µM [activator, partial curve], O=C(NCc1ccccn1)Nc1cccc(Cl)c1Cl 3.55 µM [activator, partial curve], COc1ccc(NC(=O)c2ccc(NC(=O)CCS(=O)(=O)c3cccs3)cc2)cc1 1.12 µM [activator, partial curve], COC(=O)CSc1nc2ccccn2c(=O)c1C=O 1.58 µM [activator, partial curve], COc1ccc(CCNC(=O)CSc2nc3[nH]ncc3c(=O)n2-c2ccc(C)c(Cl)c2)cc1OC 0.891 µM [activator, partial curve], O=C(c1ccc(COc2ccc(Cl)cc2)cc1)N1CCCCC1 2.51 µM [activator, partial curve], Cc1occc1C(=O)N/N=C/c1c[nH]c2ccccc12 3.98 µM [activator, partial curve], Clc1ccc(/C=N/c2c(-c3ccco3)nc3ccccn23)cc1 3.16 µM [activator, single point], O=C(NCC1CCCO1)c1c(O)c2ccccc2[nH]c1=O (centres undefined) 1.26 µM [activator, partial curve], CC(/C=C/c1ccc(N(C)C)cc1)=N\N=C1\NC(=O)CC(C(=O)Nc2ccccc2)S1 (centres undefined) 5.62 µM [activator, single point], O=C(CSc1nnc(NC(=O)c2ccccc2Cl)s1)Nc1ccc2c(c1)oc1ccccc12 2 µM [activator, partial curve], CN1CCN(c2ccc(NC(=O)c3ccc(Br)o3)cc2)CC1 1.26 µM [activator, partial curve], CCOC(=O)C1CCN(C(=O)Nc2ccc3c(c2)nc(C)n3C)CC1 1.41 µM [activator, partial curve], Cc1csc(SCC(=O)Nc2ccccc2C)n1 1.26 µM [activator, single point], COCC1CCCCN1C(=O)c1cccc(OC2CCN(C(=O)C3CC3)CC2)c1 (centres undefined) 2.82 µM [activator, partial curve], CN(C(=O)Nc1cccc(C(F)(F)F)c1)C1CCCCC1 3.98 µM [activator, single point]

Potency, active:
COc1ccc2sc(NC(=O)CC(C)C)nc2c1 4.47 µM, Cc1ccccc1-c1nnc(Cc2ccccc2)o1 3.98 µM, COc1ccc(C(=O)Nc2ccc(N3CCCC3)cc2)cc1OC 3.98 µM, COc1ccc(-c2cc(C(=O)N3CCN(c4ccccn4)CC3)c3ccccc3n2)cc1 2.82 µM, Cc1ncoc1C(=O)Nc1ccc2c(c1)OCCO2 2.51 µM, Cc1cc(NC(=O)NC(=O)c2cccc(OC(F)(F)C(F)F)c2)n[nH]1 2.24 µM, CCOc1ccc(N/C=C/C(=O)c2ccc(OC)cc2)c([N+](=O)[O-])c1 1.12 µM, Cc1cccc(NC(=O)CSc2nc3ccccc3o2)c1 0.891 µM, CCCC(=O)c1ccc(N2CCCCCC2)c(F)c1 3.55 µM, O=C(Nc1ccccc1)Nc1ccc(F)cc1F 4.47 µM, CC(=O)c1ccc(N=Nc2ccc(C)cc2)cc1 0.316 µM, O=C(Nc1ccccc1)c1cccc(-c2nnc(-c3ccccc3)o2)c1 3.98 µM, O=c1/c(=C/c2ccc(O)cc2)sc2n1CCCN=2 2.82 µM

activation, negative = inhibition, inactive:
O=C1C2C3c4ccccc4C(c4ccccc43)C2C(=O)N1c1nc(-c2ccccc2)cs1 (centres undefined) -4.85%, COc1ccc(Cl)cc1NC(=O)CN(C)C(=O)c1ccc2c(c1)CC(c1ccccc1)OC2=O (centres undefined) -0.683%, C=CCN1C(=O)/C(=C\c2cccc(OC(=O)c3ccco3)c2)SC1=S 1.17%, Cc1ccc(C(=O)NCCn2ccc3ccccc32)cc1[N+](=O)[O-] 21%, COc1c(C)cccc1C(=O)Nc1ccc(N2CCN(C(=O)c3ccccc3C)CC2)cc1 -7.51%, Cc1ccc(C(C[N+](=O)[O-])Sc2ccc(N)cc2)cc1 (centres undefined) -7.38%, COc1cccc(C2CC(=O)C3=C(C2)Nc2ccccc2N(C(=O)CCC(=O)O)C3c2ccc(F)cc2)c1 (centres undefined) 1.55%, CCc1nnc(NS(=O)(=O)c2ccc(NC(=O)OC)cc2)s1 -7.69%, CCCc1cc(C(=O)Nc2cc(OC)ccc2OC)cs1 0.799%, O=C(Cc1cccc(C(F)(F)F)c1)Nc1cc(S(=O)(=O)N2CCOCC2)ccc1N1CCCC1 3.52%, COc1ccc(/C=C/C(=O)c2ccc(Cl)s2)cc1O 5.55%, COc1ccc(/C=N/NC(=O)CCn2c3ccccc3c3ccccc32)cc1O -32.2%, Cc1ccnc(NS(=O)(=O)c2ccc(-n3cccn3)cc2)c1 -1.18%, COc1ccc(NC(=O)CCCn2cnc3ccccc3c2=O)cc1 -4.13%, Cc1ccc(CNC(=O)CSc2nnc(CNC(=O)c3ccccc3)o2)cc1 8.97%

Reference: PubChem BioAssay AID485297 (National Center for Advancing Translational Sciences (NCATS), 2010)
